This is one part of the list. The full chains were built here from the parent and the listed change. Values near 0.05 are background.

B1: TEV protease; numbered along this chain (parent)
chain: MGESLFKGPRDYNPISSSICHLTNESDGHTTSLYGIGFGPFIITNKHLFRRNNGTLVVQSLHGVFKVKDTTTLQQHLVDGRDMIIIRMPKDFPPFPQKLKFREPQREERICLVTTNFQTKSMSSMVSDTSCTFPSGDGIFWKHWIQTKDGQCGSPLVSTRDGFIVGIHSASNFTNTNNYFTSVPKNFMELLTNQEAQQWVSGWRLNADSVLWGGHKVFMVKPEEPFQPVKEATQL

In the experiment the parent is B1. Description: raw area under fraction-flipped curve 0-4 h after induction (AUC4h, not background-subtracted), DNA-recorder readout of cleavage of the substrate (dimensionless); higher = more cleavage of the substrate by the protease variant. The following applies: temperature: 34 °C; time window: 0-4 h after rhamnose induction. As to the method:
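In vivo DNA recorder in E. coli TOP10(DE3) ΔrhaA at 34 °C. Each TEVp single-site mutant (parent TEVp 0) is paired with a single-site variant of the 7-mer TEVs (canonical ENLYFQ|S). The substrate sits between flexible linkers in a Bxb1-sfGFP-TEVs-SsrA fusion, so cleavage stabilises Bxb1 and speeds flipping of a recombination array, read by NGS. The value is the raw area under the fraction-flipped curve over 0-4 h after rhamnose induction (AUC4h), with ≥20 reads per time point. It is not background-subtracted; inactive controls average about 0.047.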
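Also: Bxb1 expression induced with 0.2% (w/v) L-rhamnose at OD600 near 0.5, cultures sampled hourly, flipped fraction per protease–substrate barcode pair counted by paired-end Illumina sequencing.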

In the case of MGESLFKGPRDYNPISSSICHLTNESDGHTTSLYGIGFGPFIITNKHLFRRNNGTLVVQSLHGVFKVKDTTTLQQHLVDGRDMIIIRMPKDFPPFPQKLKFREPQREERICLVTTNFQTKSMSSMVSDTSCTFPSGDGIFWKHWIQTKDGQCGSPLVSTRDGFIVGIHSASNFTNTNNYFTSVPKNFMELLTNQEAQQWVSGWRLNADSVLWGGHKVFMVKPEEPAQPVKEATQL [F226A], the “area with substrate ENLAFQS” value turned out to be 0.0579, the “area with substrate ENLEFQS” value was found to be 0.068, the “area with substrate ENLFFQS” value is 0.0835 and the “area with substrate ENLGFQS” value was found to be 0.0502. Besides, the “area with substrate ENLLFQS” value is 0.0852, the “area with substrate ENLMFQS” value was determined as 0.0826, the “area with substrate ENLNFQS” value was 0.0621 and the “area with substrate ENLQFQS” value came out at 0.0342. Moreover, the “area with substrate ENLRFQS” value was found to be 0.0823 and the “area with substrate ENLSFQS” value was found to be 0.0622.
MGESLFKGPRDYNPISSSICHLTNESDGHTTSLYGIGFGPFIITNKHLFRRNNGTLVVQSLHGVFKVKDTTTLQQHLVDGRDMIIIRMPKDFPPFPQKLKFREPQREERICLVTTNFQTKSMSSMVSDTSCTFPSGDGIFWKHWIQTKDGQCGSPLVSTRDGFIVGIHSASNFTNTNNYFTSVPKNFMELLTNQEAQQWVSGWRLNADSVLWGGHKVFMVKPEEPKQPVKEATQL [F226K]: the “area with substrate ENLAFQS” value was determined as 0.0626, the “area with substrate ENLCFQS” value was determined as 0.081, the “area with substrate ENLDFQS” value was found to be 0.0603 and the “area with substrate ENLEFQS” value worked out at 0.0618. In addition, the “area with substrate ENLFFQS” value was determined as 0.0951, the “area with substrate ENLHFQS” value was 0.0661, the “area with substrate ENLKFQS” value was found to be 0.0668 and the “area with substrate ENLMFQS” value is 0.0793. Moreover, the “area with substrate ENLNFQS” value is 0.065, the “area with substrate ENLRFQS” value was 0.0831, the “area with substrate ENLSFQS” value worked out at 0.0667 and the “area with substrate ENLVFQS” value turned out to be 0.0238. Further, the “area with substrate ENLWFQS” value worked out at 0.0671.
Consider MGESLFKGPRDYNPISSSICHTTNESDGHTTSLYGIGFGPFIITNKHLFRRNNGTLVVQSLHGVFKVKDTTTLQQHLVDGRDMIIIRMPKDFPPFPQKLKFREPQREERICLVTTNFQTKSMSSMVSDTSCTFPSGDGIFWKHWIQTKDGQCGSPLVSTRDGFIVGIHSASNFTNTNNYFTSVPKNFMELLTNQEAQQWVSGWRLNADSVLWGGHKVFMVKPEEPFQPVKEATQL [L22T], for which the “area with substrate ENLCFQS” value is 0.0431, the “area with substrate ENLDFQS” value is 0.0594, the “area with substrate ENLEFQS” value was found to be 0.0525 and the “area with substrate ENLFFQS” value came out at 0.0552. The “area with substrate ENLGFQS” value was 0.0549, the “area with substrate ENLHFQS” value worked out at 0.0364, the “area with substrate ENLIFQS” value came to 0.0608 and the “area with substrate ENLKFQS” value stood at 0.0504. The “area with substrate ENLLFQS” value was 0.0447, the “area with substrate ENLNFQS” value is 0.0452, the “area with substrate ENLPFQS” value was found to be 0.0408 and the “area with substrate ENLQFQS” value was 0.0494. Further, the “area with substrate ENLRFQS” value is 0.045, the “area with substrate ENLSFQS” value is 0.0536, the “area with substrate ENLTFQS” value turned out to be 0.0654 and the “area with substrate ENLWFQS” value turned out to be 0.0504.
Take MGESLFKGPRDYNPISSSICHRTNESDGHTTSLYGIGFGPFIITNKHLFRRNNGTLVVQSLHGVFKVKDTTTLQQHLVDGRDMIIIRMPKDFPPFPQKLKFREPQREERICLVTTNFQTKSMSSMVSDTSCTFPSGDGIFWKHWIQTKDGQCGSPLVSTRDGFIVGIHSASNFTNTNNYFTSVPKNFMELLTNQEAQQWVSGWRLNADSVLWGGHKVFMVKPEEPFQPVKEATQL [L22R]: the “area with substrate ENLCFQS” value was 0.0409, the “area with substrate ENLDFQS” value was found to be 0.0445, the “area with substrate ENLEFQS” value was 0.0398 and the “area with substrate ENLFFQS” value turned out to be 0.0518. Besides, the “area with substrate ENLGFQS” value was 0.0597, the “area with substrate ENLHFQS” value came out at 0.0508, the “area with substrate ENLIFQS” value is 0.0657 and the “area with substrate ENLKFQS” value was determined as 0.0569. Besides, the “area with substrate ENLNFQS” value came to 0.0495, the “area with substrate ENLPFQS” value turned out to be 0.0459, the “area with substrate ENLQFQS” value is 0.0434 and the “area with substrate ENLRFQS” value is 0.0461. The “area with substrate ENLSFQS” value worked out at 0.0525 and the “area with substrate ENLWFQS” value turned out to be 0.0437.
With MGSSLFKGPRDYNPISSSICHLTNESDGHTTSLYGIGFGPFIITNKHLFRRNNGTLVVQSLHGVFKVKDTTTLQQHLVDGRDMIIIRMPKDFPPFPQKLKFREPQREERICLVTTNFQTKSMSSMVSDTSCTFPSGDGIFWKHWIQTKDGQCGSPLVSTRDGFIVGIHSASNFTNTNNYFTSVPKNFMELLTNQEAQQWVSGWRLNADSVLWGGHKVFMVKPEEPFQPVKEATQL [E3S], the “area with substrate ENLCFQS” value is 0.0784, the “area with substrate ENLFFQS” value turned out to be 0.0943, the “area with substrate ENLGFQS” value was found to be 0.0448 and the “area with substrate ENLIFQS” value came to 0.0952. In addition, the “area with substrate ENLKFQS” value was 0.0773, the “area with substrate ENLLFQS” value was found to be 0.0845, the “area with substrate ENLNFQS” value turned out to be 0.0688 and the “area with substrate ENLPFQS” value worked out at 0.045. Moreover, the “area with substrate ENLRFQS” value was 0.0739 and the “area with substrate ENLSFQS” value stood at 0.0468.
MGESLFKGPRDYNPISSSIHHLTNESDGHTTSLYGIGFGPFIITNKHLFRRNNGTLVVQSLHGVFKVKDTTTLQQHLVDGRDMIIIRMPKDFPPFPQKLKFREPQREERICLVTTNFQTKSMSSMVSDTSCTFPSGDGIFWKHWIQTKDGQCGSPLVSTRDGFIVGIHSASNFTNTNNYFTSVPKNFMELLTNQEAQQWVSGWRLNADSVLWGGHKVFMVKPEEPFQPVKEATQL [C20H]: the “area with substrate ENLCFQS” value is 0.0431, the “area with substrate ENLDFQS” value is 0.0565, the “area with substrate ENLEFQS” value came to 0.0416 and the “area with substrate ENLFFQS” value was determined as 0.0625. Also, the “area with substrate ENLGFQS” value came to 0.0572, the “area with substrate ENLHFQS” value was determined as 0.0548, the “area with substrate ENLIFQS” value worked out at 0.0677 and the “area with substrate ENLKFQS” value stood at 0.0697. For the same variant, the “area with substrate ENLLFQS” value worked out at 0.048, the “area with substrate ENLMFQS” value was found to be 0.0648, the “area with substrate ENLNFQS” value is 0.0533 and the “area with substrate ENLPFQS” value was determined as 0.0348. The “area with substrate ENLQFQS” value was found to be 0.056, the “area with substrate ENLRFQS” value was determined as 0.0438, the “area with substrate ENLSFQS” value stood at 0.0419 and the “area with substrate ENLVFQS” value stood at 0.0466. For the same variant, the “area with substrate ENLWFQS” value was found to be 0.0376.
For the variant MGESLFKGPRDYNPISSSICHLTNESDGHTTSLYGIGFGPFIITNKHLFRRNNGTLVVQSLHGVFKVKDTTTLQQHLVDGRDMIIIRMPKDFPPFPQKLKFREPQREERICLVTTNFQTKSMSSMVSDTSCTFPSGDGIFWKHWIQTKDGQCGSPLVSTRDGFIVGIHSASNFTNTNNYFTSVPKNFMELLTNQEAQQWVSGWRLNADSVLWGGHKVFMVKPEEPFQPVLEATQL [K230L], the “area with substrate ENLAFQS” value came to 0.074, the “area with substrate ENLDFQS” value is 0.0599, the “area with substrate ENLEFQS” value is 0.0665 and the “area with substrate ENLFFQS” value was determined as 0.0751. In addition, the “area with substrate ENLHFQS” value was found to be 0.0609, the “area with substrate ENLIFQS” value stood at 0.0693, the “area with substrate ENLKFQS” value was 0.0702 and the “area with substrate ENLLFQS” value worked out at 0.0573. In addition, the “area with substrate ENLNFQS” value came to 0.0642, the “area with substrate ENLPFQS” value was found to be 0.0629, the “area with substrate ENLSFQS” value came out at 0.0669 and the “area with substrate ENLVFQS” value worked out at 0.0594. In addition, the “area with substrate ENLWFQS” value was 0.066.
With MGESLFKGPRDYNPISSSICHLTNESDGHTTSLYGIGFGPFIITNKHLFRRNNGTLVVQSLHGVFKVKDTTTLQQHLVDGRDMIIIRMPKDFPPFPQKLKFREPQREERICLVTTNFQTKSMSSMVSDTSCTFPSGDGIFWKHWIQTKDGQCGSPLVSTRDGFIVGIHSASNFTNTNNYFTSVPKNFMELLTNQEAQQWVSGWRLNADSVLWGGHKVFMVKPEEPFQPVTEATQL [K230T], the “area with substrate ENLAFQS” value was found to be 0.0625, the “area with substrate ENLCFQS” value came out at 0.0614, the “area with substrate ENLDFQS” value came to 0.0587 and the “area with substrate ENLEFQS” value was found to be 0.0756. For the same variant, the “area with substrate ENLFFQS” value worked out at 0.0907, the “area with substrate ENLGFQS” value was 0.0605, the “area with substrate ENLHFQS” value was found to be 0.092 and the “area with substrate ENLIFQS” value was determined as 0.0871. In addition, the “area with substrate ENLKFQS” value was 0.0749, the “area with substrate ENLLFQS” value worked out at 0.0793, the “area with substrate ENLMFQS” value was found to be 0.101 and the “area with substrate ENLNFQS” value worked out at 0.0625. The “area with substrate ENLPFQS” value amounted to 0.0605, the “area with substrate ENLRFQS” value is 0.0768, the “area with substrate ENLSFQS” value was 0.0662 and the “area with substrate ENLVFQS” value came to 0.0812. The “area with substrate ENLWFQS” value was 0.0626.
As for MGESLFKGPRDYNPISSSICHLTNESDGHTTSLYGIGFGPFIITNKHLFRRNNGTLVVQSLHGVFKVKDTTTLQQHLVDGRDMIIIRMPKDFPPFPQKLKFREPQREERICLVTTNFQTKSMSSMVSDTSCTFPSGDGIFWKHWIQTKDGQCGSPLVSTRDGFIVGIHSASNFTNTNNYFTSVPKNFMELLTNQEAQQWVSGWRLNADSVLWGGHKVFMVKPEEPFTPVKEATQL [Q227T], the “area with substrate ENLAFQS” value was found to be 0.0716, the “area with substrate ENLCFQS” value came out at 0.0639, the “area with substrate ENLDFQS” value is 0.0789 and the “area with substrate ENLFFQS” value worked out at 0.0822. The “area with substrate ENLHFQS” value came out at 0.036, the “area with substrate ENLIFQS” value turned out to be 0.172, the “area with substrate ENLKFQS” value was 0.0687 and the “area with substrate ENLMFQS” value is 0.065. The “area with substrate ENLPFQS” value is 0.0423 and the “area with substrate ENLQFQS” value worked out at 0.0706.

The values above are taken from the supplement of paper PMC12217912.
